This is an account of results in publication PMC9911399, “Two distinct binding modes provide the RNA-binding protein RbFox with extraordinary sequence specificity”.

Positions count from the first letter of the chain named. The list shows a part of the results.

To fix the notation:
B1: CGACAUA (DNA:RNA)
RNA: GGGAGACCGGAAUUCAGAUUGUCCCGACAUAUUAAAUCCCGUCGUAGCCACCA
DNA 1: CAATCTGAATTCCGGTCTCCC
DNA 2: TGGTGGCTACGACGGGATT
B2: AAGGCCG (DNA:RNA)
RNA: GGGAGACCGGAAUUCAGAUUGUCCAAGGCCGUUAAAUCCCGUCGUAGCCACCA
DNA 1: CAATCTGAATTCCGGTCTCCC
DNA 2: TGGTGGCTACGACGGGATT
B3: GGGAGUG (DNA:RNA)
RNA: B2 RNA with A25G, A26G, G28A, C29G, C30U
DNA 1: CAATCTGAATTCCGGTCTCCC
DNA 2: TGGTGGCTACGACGGGATT
B4: UCAAUCA (DNA:RNA)
RNA: B1 RNA with C25U, G26C, C28A, A29U, U30C
DNA 1: CAATCTGAATTCCGGTCTCCC
DNA 2: TGGTGGCTACGACGGGATT
B5: CUGGUGG (DNA:RNA)
RNA: B2 RNA with A25C, A26U, C29U, C30G
DNA 1: CAATCTGAATTCCGGTCTCCC
DNA 2: TGGTGGCTACGACGGGATT
B6: CCAAUCA (DNA:RNA)
RNA: B1 RNA with G26C, C28A, A29U, U30C
DNA 1: CAATCTGAATTCCGGTCTCCC
DNA 2: TGGTGGCTACGACGGGATT
B7: AGUCCCU (DNA:RNA)
RNA: B2 RNA with A26G, G27U, G28C, G31U
DNA 1: CAATCTGAATTCCGGTCTCCC
DNA 2: TGGTGGCTACGACGGGATT
B8: GGCCGUA (DNA:RNA)
RNA: B1 RNA with C25G, A27C, A29G
DNA 1: CAATCTGAATTCCGGTCTCCC
DNA 2: TGGTGGCTACGACGGGATT
B9: AGCAAGC (DNA:RNA)
RNA: B1 RNA with C25A, A27C, C28A, U30G, A31C
DNA 1: CAATCTGAATTCCGGTCTCCC
DNA 2: TGGTGGCTACGACGGGATT
B10: UUUCGUA (DNA:RNA)
RNA: B1 RNA with C25U, G26U, A27U, A29G
DNA 1: CAATCTGAATTCCGGTCTCCC
DNA 2: TGGTGGCTACGACGGGATT
B11: AUAGCCU (DNA:RNA)
RNA: B2 RNA with A26U, G27A, G31U
DNA 1: CAATCTGAATTCCGGTCTCCC
DNA 2: TGGTGGCTACGACGGGATT
B12: CAACUAG (DNA:RNA)
RNA: B1 RNA with G26A, A29U, U30A, A31G
DNA 1: CAATCTGAATTCCGGTCTCCC
DNA 2: TGGTGGCTACGACGGGATT
B13: GCUCUCA (DNA:RNA)
RNA: B1 RNA with C25G, G26C, A27U, A29U, U30C
DNA 1: CAATCTGAATTCCGGTCTCCC
DNA 2: TGGTGGCTACGACGGGATT
B14: CAUGGCC (DNA:RNA)
RNA: B2 RNA with A25C, G27U, C29G, G31C
DNA 1: CAATCTGAATTCCGGTCTCCC
DNA 2: TGGTGGCTACGACGGGATT
B15: CCUUUCA (DNA:RNA)
RNA: B1 RNA with G26C, A27U, C28U, A29U, U30C
DNA 1: CAATCTGAATTCCGGTCTCCC
DNA 2: TGGTGGCTACGACGGGATT
B16: CGCUGUA (DNA:RNA)
RNA: B1 RNA with A27C, C28U, A29G
DNA 1: CAATCTGAATTCCGGTCTCCC
DNA 2: TGGTGGCTACGACGGGATT
B17: GCAUCGA (DNA:RNA)
RNA: B1 RNA with C25G, G26C, C28U, A29C, U30G
DNA 1: CAATCTGAATTCCGGTCTCCC
DNA 2: TGGTGGCTACGACGGGATT
B18: AGAUUUU (DNA:RNA)
RNA: B1 RNA with C25A, C28U, A29U, A31U
DNA 1: CAATCTGAATTCCGGTCTCCC
DNA 2: TGGTGGCTACGACGGGATT
B19: UUGGGAA (DNA:RNA)
RNA: B2 RNA with A25U, A26U, C29G, C30A, G31A
DNA 1: CAATCTGAATTCCGGTCTCCC
DNA 2: TGGTGGCTACGACGGGATT
B20: GGAGAUU (DNA:RNA)
RNA: B1 RNA with C25G, C28G, A31U
DNA 1: CAATCTGAATTCCGGTCTCCC
DNA 2: TGGTGGCTACGACGGGATT

The target in the test is T1, RBFOX1 RRM RbFoxmut (Fox-RRM*) (Homo sapiens, UniProt Q9NWB1 109-208, R118D;E147R;N151S;E152T).
T1 sequence: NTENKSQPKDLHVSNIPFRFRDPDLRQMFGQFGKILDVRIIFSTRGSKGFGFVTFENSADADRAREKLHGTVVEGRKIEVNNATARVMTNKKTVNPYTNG
Nature of the test: EMSA; HiTS-Eq, 1 nM pool, 10 min; buffer printed only for the single-RNA assays: 10 mM Tris pH 7.5, 150 mM NaCl, 3.4 mM EDTA, 0.001% NP-40, 30 C. As to conditions: tags: His6 N-terminal (pET28a); label: 5' 32P. Summed up:
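These values rest on relative association constants, computed from read-count changes of each RNA species versus the control reaction and normalised to the cognate motif. Reads came from free RNA recovered by 8% native PAGE after purified RbFox RRM (wild type or mutant) at increasing concentrations was equilibrated for 10 min in 50 µL with 1 nM of a 5′-radiolabelled pool with 7 randomized nucleotides and DNA-annealed flanks.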
(In general: In EMSA bound probe runs differently from free probe, usually more slowly.)
For the molecule B1, the binding signal is 0.0671 KA relative to UGCAUGU.

On to B2, for which the binding signal is 0.106 KA relative to UGCAUGU.

As to B3, the binding signal was 0.269 KA relative to UGCAUGU.

B4: the binding signal was 0.0679 KA relative to UGCAUGU.

With B5, the binding signal was 0.0794 KA relative to UGCAUGU.

In the case of B6, the binding signal was 0.0737 KA relative to UGCAUGU.

B7: the binding signal was 0.0659 KA relative to UGCAUGU.

For B8, the binding signal was 0.106 KA relative to UGCAUGU.

In the case of B9, the binding signal was 0.0622 KA relative to UGCAUGU.

As to B10, the binding signal is 0.142 KA relative to UGCAUGU.

In the case of B11, the binding signal was 0.0845 KA relative to UGCAUGU.

Regarding B12, the binding signal was 0.0893 KA relative to UGCAUGU.

As to B13, the binding signal was 0.098 KA relative to UGCAUGU.

Consider B14, for which the binding signal was 0.335 KA relative to UGCAUGU.

B15: the binding signal is 0.0783 KA relative to UGCAUGU.

As for B16, the binding signal was 0.206 KA relative to UGCAUGU.

On to B17, for which the binding signal was 0.675 KA relative to UGCAUGU.

B18: the binding signal is 0.0916 KA relative to UGCAUGU.

With B19, the binding signal was 0.14 KA relative to UGCAUGU.

In the case of B20, the binding signal is 0.0811 KA relative to UGCAUGU.
